# Data as given in PubChem BioAssay AID652104 (National Center for Advancing Translational Sciences (NCATS), 2013).
# Among all 410,000 compounds or so, about 7,200 (1.8%) were called active. The inconclusive results got no clear call from the source; some entries with a clear call stand among them for comparison. Calls come from the whole dose curve; as a rule, active = well fitted activation curve with a large enough effect; inconclusive = small, poorly fitted or top-dose-only effect, or another doubt; inactive = no such curve, though single readings can be large or run the other way. Potencies of inconclusive entries are left out as doubtful fits.
# Assay: qHTS of TDP-43 Inhibitors; note: nearly all actives have a fitted effect of over 50% in size; for growth rescue (activation): % of control where 0% means no effect
# Conditions: TDP-43 expressing yeast growth rescue, BacTiter-Glo, 24 h; growth rescue (activation): at 46.1 µM (top of the series) unless noted
# Text: The goal of this project is to identify new chemical probes capable of reversing the toxicity associated with TDP-43 which is associated with frontotemporal lobar degeneration and amyotrophic lateral sclerosis. These compounds will provide a complementary approach to deciphering the tangled mechanisms of toxicity and protection that we have uncovered through genome-wide genetic screens and are beginning to uncover in a large-scale proteomics analysis with mass spectroscopy.
# To this end, a miniaturized assay was developed to be screened against the Molecular Libraries Small Molecule Repository (MLSMR) to discover TDP-43 inhibitors. Please note that in the set-up this yeast-based assay compounds that inhibit as TDP-43, have a read-out as activators.
# NIH Chemical Genomics Center [NCGC]
# NIH Molecular Libraries Probe Centers Network [MLPCN]
# Assay Submitter (PI): Susan Lindquist, Whitehead Institute/MIT
# Dispense 2.5 microL yeast galactose medium per 1536-well plate, pin compound, dispense 2.5 microL TDP-43 expressing yeast in galactose medium at OD600=0.02 (pregrown in raffinose medium to mid-log phase) per well, incubate for 24 hr at 30 deg C, and cell growth will be measured using 5 microL of Bactiter/Glo reagent to entire plate and read using Luminescence Protocol in ViewLux.
# Potency is the fitted concentration of half-maximal effect; tags give direction and shape of the fitted curve.
Compound,Potency,growth rescue (activation)
N#Cc1ccc(C2=CC(=O)C[C@H](c3ccc(F)cc3)C2)cc1,"inconclusive [activator, single point]",–
CCOC(=O)C1CCN(c2ncnc3c2nc2n3CCCCC2)CC1,"inconclusive [activator, partial curve]",–
CC[C@]12c3[nH]c4ccc(OC)cc4c3CCN1C(=O)C(CC(=O)NC/C=C(\C)CCC=C(C)C)C[C@@H]2C(=O)N1CCN(C(=O)C2CC2)CC1 (some centres not stated),–,inactive: 3.95%
O=C(NCC(c1cccnc1)N1CCc2ccccc21)c1cccc(Br)c1 (configuration not stated),"inconclusive [activator, single point]",–
CCCCCCCCN1C(=O)[C@H](CC(=O)NCCCOC)C[C@@]2(C(=O)OC)CC(C)(C)CC=C12,"inconclusive [activator, partial curve, poor fit]",–
COc1ccc(OC)c(S(=O)(=O)N2CCC3(CC2)CC(=O)c2ccccc2O3)c1,"inconclusive [activator, single point]",–
COc1cc(NC(=S)N2c3ccccc3CC2C)cc(OC)c1 (configuration not stated),"inconclusive [activator, single point]",–
CCOC(=O)c1c(-c2ccc(C)cc2)csc1/N=C/N(C)C,"inconclusive [activator, single point]",–
O=C(O)C1C2C=CC(C2)C1C(=O)OC1CC2CCC1C2 (configuration not stated),"inconclusive [activator, single point]",–
CN(C(=O)CSc1nnc(NC(=O)Nc2ccccc2)s1)c1ccccc1,–,inactive: 22.1%
O=C(Nc1cccc(-c2nc3cccnc3s2)c1)c1cccnc1Cl,"inconclusive [activator, single point]",–
Cc1sc2nc(SCc3nc4ccccc4[nH]3)n(Cc3ccco3)c(=O)c2c1C,"inconclusive [activator, partial curve]",–
CCOC(=O)Cc1cc(-c2ccc(O)cc2)nc2ccc3ccccc3c12,"inconclusive [activator, partial curve]",–
COc1cc2ccccc2cc1C(=O)Nc1cccc(-c2nc3cc(C)c(C)cc3o2)c1,–,inactive: 17.8%
COc1ccc(-c2ccc3c(c2)[C@@H]2C[C@H](N(C)S(=O)(=O)c4ccccc4)[C@H]([C@H](C)O)C(=O)N2CC3)cc1,"inconclusive [activator, partial curve]",–
O=S(=O)(Nc1ccc2ccccc2n1)c1ccccc1Cl,"inconclusive [activator, single point]",–
O=C(Nc1ccc(F)cc1)Nc1nnc(Cc2ccccc2F)s1,–,inactive: 11.7%
